Experimental findings from patent US20090252729A1 (Biogen, published 2009) are described below.

Assay [1] deals with T1, LTα1β2 (coated on ELISA plates) (Homo sapiens (Human), UniProt P01374 35-205; Q06643 49-244, Heterotrimer of one alpha and two beta chains, as the name says.).
T1 construct: Heterotrimer of one alpha and two beta chains by its name; also called LTa1β2; copies: 1 + 1
T1 sequence (alpha): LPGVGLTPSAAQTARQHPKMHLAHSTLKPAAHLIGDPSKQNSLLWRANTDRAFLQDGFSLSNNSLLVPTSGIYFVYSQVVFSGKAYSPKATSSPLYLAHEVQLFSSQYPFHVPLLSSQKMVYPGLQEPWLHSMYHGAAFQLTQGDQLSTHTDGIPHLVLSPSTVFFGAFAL
T1 sequence (beta): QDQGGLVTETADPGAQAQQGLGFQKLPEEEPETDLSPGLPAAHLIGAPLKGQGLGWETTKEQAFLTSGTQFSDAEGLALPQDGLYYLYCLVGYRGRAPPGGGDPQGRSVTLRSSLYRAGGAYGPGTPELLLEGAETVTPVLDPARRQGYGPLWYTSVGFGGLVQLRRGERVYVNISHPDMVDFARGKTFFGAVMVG
Briefly: ELISA on plates coated with 5 ug/ml LTα1β2, detected with anti-human HRP secondary antibody. The value is parameter C (midpoint) of the four-parameter fit y = ((A-D)/(1+(x/C)^B))+D printed under the plot. The unit is taken from the x axis. The upper plateau of the fit (D 1.147) is not reached within the range shown. The protocol: FIG. 59A depicts the results of an ELISA evaluating the binding affinity of the monomeric LTβR:scFc to LTα1β2. ELISA plates were coated overnight at 4° C. with 5 ug/ml LTα1β2 in PBS. Plates were then blocked with 1% Casein in 10 mM PBS, pH 7.0, then washed with 10 mM PBS, pH 7.0, 0.1% Tween 20 (wash buffer) three times. LTβR:IgG or LTBβ:scFc serially diluted into 10 mM PBS, 362 mM NaCl, 0.055 Tween-20, 0.1% Casein, 5% FBS pH 7.0 (assay diluent) and incubated for 1 h, then washed with wash buffer. To each well was added Donkey anti-human heavy and light specific HRP (Jackson Labs) conjugated secondary antibody diluted 1:5000 in assay diluents for 60 min then washed with PBS. The HRP was developed using tetramethybenzidine and hydrogen peroxide in 100 mM NaAcetate pH 4.0 after several minutes, the assay was stopped by the addition of 100 uL of 1N sulfuric acid and sample absorbance read at 450 nm.

Assay [2] has as its target T2, neublastin, homodimeric.
T2 construct: also called neublastin dimer
T2 sequence (Q5T4W7 108-220, species assumed, looked up): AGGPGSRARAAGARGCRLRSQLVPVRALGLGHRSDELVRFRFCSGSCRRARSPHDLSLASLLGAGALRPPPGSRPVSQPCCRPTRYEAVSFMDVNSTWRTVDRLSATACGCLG
The experiment in a line: solution phase Biacore.

B1: LTβR:scFc fusion polypeptide (EAG2190) (Fc fusion)
chain: SQPQAVPPYASENQTCRDQEKEYYEPQHRICCSRCPPGTYVSAKCSRIRDTVCATCAENSYNEHWNYLTICQLCRPCDPVMGLEEIAPCTSKRKTQCRCQPGMFCAAWALECTHCELLSDCPPGTEAELKDEVGKGNNHCVPCKAGHFQNTSSPSARCQPHTRCENQGLVEAAPGTAQSDTTCKNPLEPLPPEMSGTMV[in this place human IgG1 Fc]GGGSGGGGSGGGGS[in this place human IgG1 Fc with changes]
notes: also called monomeric LTβR:scFc; LTBβ:scFc
In assay [1], B1 gave a concentration giving a half-maximal response (EC50) of 4.04 µg/mL.

B2: GFRα3:scFc fusion protein (ASK057) (Fc fusion)
chain: DPLPTESRLMNSCLQARRKCQADPTCSAAYHHLDSCTSSISTPLPSEEPSVPADCLEAAQQLRNSSLIGCMCHRRMKNQVACLDIYWTVHRARSLGNYELDVSPYEDTVTSKPWKMNLSKLNMLKPDSDLCLKFAMLCTLNDKCDRLRKAYGEACSGPHCQRHVCLRQLLTFFEKAAEPHAQGLLLCPCAPNDRGCGERRRNTIAPNCALPPVAPNCLELRRLCFSDPLCRSRLVDFQTHCHPMDILGTCATEQSRCLRAYLGLIGTAMTPNFVSNVNTSVALSCTCRGSGNLQEECEMLEGFFSHNPCLTEAIAAKMRFHSQLFSQDWPHPTFAVMAHQNEV[in this place human IgG1 Fc]GGGSGGGGSGGGGS[in this place human IgG1 Fc with changes]
notes: also called GFRα3 immunoadhesin
As to B2, the “stoichiometry (GFRα3:scFc per neublastin dimer)” value in assay [2] was 2 GFRα3:scFc per neublastin dimer.
